# Measured values as given in the supplement of paper PMC11417369.
# ± gives the standard deviation of the averaged measurements. Some of the results follow.
# Tested on: PfAP2-G AP2 domain (GST-tagged)
# Assay: gcPBM binding intensity (ln(normalized median fluorescence intensity)); higher = stronger DNA binding
# Method in brief: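 Using an Agilent 4 × 180k array, primer-extended double-stranded 36-bp intergenic genomic probes and negative controls were exposed for 1 h to GST-fused P. falciparum DNA-binding domains expressed in E. coli. Binding was carried out in 1× PBS with 1% milk, 0.2 mg/ml BSA, 0.5% salmon testes DNA and 0.03% Triton X-100, and protein was detected with Alexa488 anti-GST antibody and a 488 nm scan. Binding intensity is the highest Masliner-normalised natural-log median intensity across replicate spots of either probe orientation.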
row,Sequence,gcPBM binding intensity (ln)
1,AAGAACAAATATGAGGTGCAACACAATATATTATTA [GTGCAC_site9965],9.945 ± 0.021
2,AGGCACAAAATTAAATGTACATATATATATATATAT [XGTACX_site3323],11 ± 0.6
3,ATGGGTATTAAGTGTACACATATAGTGTATTTTGTT [CACACA_site4452],11.6 ± 0.98
4,GTGTAAATATAATTAGTTTCACAAAACAAATATTTA [CACACA_negctrl_site717],9.84 ± 0.16
5,AAAAAAAAAAGACACACACACATATTTATTTATATA [CACACA_site6484],9.93 ± 0.042
6,AATATATAAGTGTTGTGTACTAAAGTATTTTCCTAT [XGTACX_site1622],11.3 ± 0.47
7,CATATACAGAAACACACACACACATAAATAAATATA [CACACA_site1343],10.1 ± 0.3
8,TTTAATTAAATATGTATATATATTCATGTATGTATA [GTGCAC_negctrl_site14],9.72 ± 0.085
9,AGTAGATATAAAAGGAGTACACATATATATATAAAT [XGTACX_site4375],11.6 ± 1
10,TGTTTTTGTGATCATATGAAAAAATTACCTACAAGG [CACACA_negctrl_site279],10.4 ± 0.4
11,TTTAATCAAATTAAAAGTACAGAATTGTTCATGTAG [XGTACX_site1229],11.5 ± 0.95
12,ATATATATATATTCCACACACACACTAATAAAAAAA [CACACA_site9214],10.2 ± 0.27
13,AAAAAATATTATATATGTACATAATATTTTTTTTTT [XGTACX_site5909],11.1 ± 0.59
14,ATAGTATCTGGTAGCTGTACGAGTCGTATAGTGCAG [XGTACX_site2542],11.3 ± 0.87
15,TTTCCGTATAATTTTGCACACGAATATAAATTTGAT [CACACA_site137],10.2 ± 0.11
16,ATAGTTTTACACATTTGTACATAATTTACAACAAAA [XGTACX_site25],10.9 ± 0.52
17,TAATTTAATAATTAGACACACATGTCTAAAATAAAA [CACACA_site2527],9.745 ± 0.035
18,AAAAGAAATTTGGGCACATGCGAATTTATAATTTAT [TGCATGCA_site960],10.4 ± 0.29
19,TAAAGTATTACAACCACACACACACCGATATATTAT [CACACA_site9382],10.19 ± 0.099
20,TTTTTTATATATATTTGTACATATTGCATGTTCCCT [XGTACX_site7143],10.8 ± 0.38
21,TGTCTTATATATATTACACACTATATGAAAAAATAT [CACACA_site1487],9.98 ± 0.17
22,TATATTTATCTGATAACACACATAAATTAGACATTT [CACACA_site6887],9.71 ± 0.028
23,TATATATATATATATACATGCATATTTTTTATTTTT [TGCATGCA_site464],9.8 ± 0.39

row,Sequence,gcPBM binding intensity (ln)
1,AATATGGTTATATATATATATATATATATATATATT [GTGCAC_negctrl_site566],9.67 ± 0.071
2,AAATAAAATACAAGTTGTACTATAAGCTTTTTATAT [XGTACX_site8021],11.1 ± 0.48
3,CAACATTTATATTTTACACACATCATTTAAGCGCTT [CACACA_site992],10.09 ± 0.078
4,TTATTATATAAAATAAATAACAAAAAAAATAAAATA [GTGCAC_negctrl_site548],9.675 ± 0.092
5,ATTGTTTTATATAGAACACACATAAAAATCTATATG [CACACA_site6681],10.1 ± 0.13
6,CCTATCCATACATATACACACATATCTATTTATATA [CACACA_site1669],10.15 ± 0.035
7,TTTGAAATAAATAATGCACACTCTACATATATACGT [CACACA_site2244],9.94 ± 0.042
8,ATATTATCATATTCGAGTACACGAAGTATTATTGCA [XGTACX_site6765],11.4 ± 0.92
9,AATAAAGTAATAACTACACACATTTATAAAAAAGTA [CACACA_site3753],9.885 ± 0.007
10,TAATAATAATTAAATTGTACATATAATATAATATAA [XGTACX_site8554],10.9 ± 0.69
11,AACATATTGGATTTAGTGCACATATATATCATAATA,10.2 ± 0.13
12,AAAAATTACCCTTGTGTACACATATATTATCTGTAT [CACACA_site4513],11.6 ± 0.95
13,TATAAGCTTTCAATGTGTACATATTATTTTATTATT [XGTACX_site3988],11.4 ± 0.81
14,TCTTATAAACATGTATATATTAAAAAAAAAAAAAAA [TGCATGCA_negctrl_site86],9.59 ± 0.47
15,AGGTGATTAATATATACACACATACATATATATATA [CACACA_site8913],9.95 ± 0.23
16,TAAAAATTACTATATGAACACACATGATTAGATATA [CACACA_site9012],9.965 ± 0.049
17,TAATTTTCAATAATTTGTACATAATTTTTATAAATT [XGTACX_site8133],10.9 ± 0.59
18,ATATATCATCATGTATGTACACACATACATATATTA [XGTACX_site2814],11.2 ± 0.74
19,TATGCTTTTACAATGTGTACTTATATTTTTCACAGG [XGTACX_site6201],11.5 ± 0.95
20,AACCATAAAAAGTGTACACATATAAAAAATATGGAA [CACACA_site4199],11.7 ± 1.1
21,TATATAAATTAACCAGTGCATTATTTGGAAATTATT,9.89 ± 0.042
22,TAAAAAAATTTTACAAGTACAAAAAAATGTAATAAA [XGTACX_site4829],11.2 ± 0.57
23,ATATATATAGATCGAAGTACAGATAGAATGAAAATA [XGTACX_site2695],11.2 ± 0.64

row,Sequence,gcPBM binding intensity (ln)
1,ACAAGAGAAAAAAATACACACAAGATAAAAATGTAT [CACACA_site607],9.925 ± 0.092
2,ACCATATGTACATTTTTTTTTTTTTTTTTTTTTTTT [CACACA_negctrl_site1188],11.5 ± 0.72
3,ATATATATATAATGTAGTACTATTTAATAATAAGCC [XGTACX_site1263],11.3 ± 0.69
4,TATAATCATATACACGCATGTATAAAATTTAATACT [TGCATGCA_site700],9.79 ± 0.13
5,ATATGTTACAAAGATTGTACTTATTAAGGAGCGACT [XGTACX_site5094],11.4 ± 0.86
6,TAATATATGTATTATGCATGTGAATAAGCACTTGAT [TGCATGCA_site848],10.19 ± 0.092
7,AAAAAAAAAAAAAAAGCACACACCAATGAGCAGCTT [CACACA_site1845],10.4 ± 0.35
8,CACACCCACAGACACACACACACATATATAATATAT [CACACA_site594],10.3 ± 0.36
9,ATGTATATAAATAGTAGTACATTATTTCACACTGTA [XGTACX_site2061],11.4 ± 0.97
10,TATTGTATCCTTAATGCATGCACCAAATAAAAAAAG [TGCATGCA_site541],10.5 ± 0.54
11,ACATTCAAGCGTAATTGTACATACATATATATATAT [XGTACX_site8876],11 ± 0.6
12,TTTAACTTTTATATAACACACATATTGTAATTATGT [CACACA_site6486],9.825 ± 0.049
13,AAATAAAAATAAAATAAAATAAAATTAAATGGGAAT [GTGCAC_negctrl_site349],9.82 ± 0.11
14,GTTTTATATTATATATGTACATATCCATGAGATATA [XGTACX_site3328],11.1 ± 0.64
15,TGTAAACATAAGATATGTACTTATATCATATTATAA [XGTACX_site6883],11.1 ± 0.76
16,ATGACAATTCAAAATTGTACATAAAAAAAAAAAAAA [XGTACX_site7560],11 ± 0.93
17,TTAAATGTTAAAAGGGTGCTATTATATAAATGAAAA [GTGCAC_site9882],10.1 ± 0.14
18,AAAAAACATTTTCGAGTGCATGTTTTGCTTTATTTC,9.7 ± 0.23
19,AATAATTTGGTCTTATCAAAAATTAAAAATAAATAA [XGTACX_negctrl_site430],10.2 ± 0.54
20,AAAAAAATTTGGCATACACACACACCCCCACCCACA [CACACA_site8094],11.3 ± 0.55
21,TTCATATGTTTTAACACACACGCATATATTATATAT [CACACA_site2007],10.02 ± 0.049
22,TATATATATTATAATACATGCGGTGATGAAAGTTAT [TGCATGCA_site924],10.2 ± 0.2
23,TATAAATATAGACACACACACACCAAAGCGTAGCGC [CACACA_site6179],10.1 ± 0.16

row,Sequence,gcPBM binding intensity (ln)
1,TTTTTTTATATAGACACAAAAGAAAATTACATATAC [CACACA_negctrl_site235],10.4 ± 0.5
2,TATAATATATATATATTTATATATATCTTCCTAATC [GTGCAC_negctrl_site682],9.38 ± 0.19
3,AATATTTATTTTATATGTACATAATTTATTTTTAAT [XGTACX_site776],11.3 ± 0.66
4,AAAAAAAAAAAAAAAACACACAAGGATCATATATAT [CACACA_site3812],10.2 ± 0.19
5,GATTTGTCTTACAGTGGTACACTTATATATATGTGA [XGTACX_site2899],11.4 ± 0.82
6,TTTTTAAAAAAACATACACACAAAAAAAAAAAAAAA [CACACA_site3935],9.85 ± 0.45
7,TATGAAGTACACAATACACACTAATTATATATAAAT [CACACA_site5444],11.5 ± 1.1
8,TAAATAAATTTATACACACACACACCCATATATATA [CACACA_site849],10.29 ± 0.085
9,AAAAAATCAAAACACACACACACACTAGAAAAAAAA [CACACA_site4909],10.1 ± 0.26
10,TTATGTTGTAAATGCACACATACATATACGCAGTTT [CACACA_site3015],10.04 ± 0.028
11,AATGGAGTTTATAAGTATAAACGAGGGATACCTAAA [XGTACX_negctrl_site483],10.3 ± 0.28
12,AATATAAATAATAGTAGTACATATATATCTCAGAAA [XGTACX_site4055],11.3 ± 0.78
13,AATAAAAATATATCCACACACATATATATATCTGTA [CACACA_site4481],9.755 ± 0.021
14,TATATTATATTTTTATGTACATATATGTTTTTTTTT [XGTACX_site8239],11.3 ± 0.72
15,ATTTTATCAAGAGGAAGTACATTACCCCATGAAAAA [XGTACX_site8295],11.4 ± 0.78
16,TATATTTTTTAATTCACACAAAAATGAAAAATATTT [CACACA_site6001],10.1 ± 0.18
17,ATATCTGAAGTGTAAAGTACATATATATATTCATAT [XGTACX_site4612],10.9 ± 0.64
18,TATATATATATATGATGTACATGAAAATTTCCAAAA [XGTACX_site5472],11.2 ± 0.77
19,CAATTTTACTCATAAACACACATATAGATGTTATTA [CACACA_site7474],9.95 ± 0.2
20,AATAGTAAAAGATATACACACACCAAAAAATATAAT [CACACA_site5293],10.2 ± 0.12
